Laboratory results published in PubChem BioAssay AID2069 (Sanford-Burnham Center for Chemical Genomics, 2009).
About 210 (18%) of roughly 1,200 compounds were called active. Cut-off read from the data, not from the text of the source: active = inhibition above about 30%; inactive = the rest. The entries are a selection whose mix differs from that of the whole data set.

Test: fluorescence readout artefact check – biochemical, HTRF, uHTS, artefact control for SUMOylation inhibitor project, confirmation (AID 2069)
Details: HTRF interference counterscreen, at 35 µM, hits give high values

SMILES	inhibition
COC12NC(=O)N(C)C1(OC)C(=O)N(C)C(=O)N2C (stereo unspecified)	inactive: -5.9%
Clc1ccc(-c2nnc3c4ccccc4nc(N4CCOCC4)n23)cc1Cl	inactive: -0.4%
O=C1C=C(N2CCOCC2)c2ccccc2C1=O	active: 51.9%
CNCc1ccccc1Sc1ccc(O)c(O)c1	inactive: 14.3%
CN(CCO)c1nc(N)c2c(N)nc3c(c2c1C#N)CC(=O)N3C1CCCC1	active: 43.9%
O=C(Nc1cccc2nsnc12)c1ccc(-c2cccc(Cl)c2)o1	inactive: 25.9%
CCn1c2ccccc2c2c3ncc4cccn4c3ccc21	active: 31.1%
COc1ccc(O)c(C(c2c(C)[nH][nH]c2=O)c2c(C)[nH][nH]c2=O)c1	inactive: -9.05%
O=C(O)CCCCCNc1ccc2nsnc2c1[N+](=O)[O-]	inactive: 6.25%
O=C(NC1(O)C(=O)c2ccccc2C1=O)c1c(Cl)cccc1Cl	active: 50.4%
O=C(O)CCCCC1CCSS1 (stereo unspecified)	inactive: 20.6%
NC(N)=N/N=C/c1cc([N+](=O)[O-])ccc1O	inactive: -11.6%
Cc1ccc(CSc2nnc(SCC(=O)N/N=C/c3c[nH]c4ccccc34)s2)cc1	inactive: -3.9%
Cc1cccn2c(=O)c3cc(S(=O)(=O)c4ccc(F)cc4)c(=N)n(Cc4ccco4)c3nc12	inactive: 16%
CN(C)c1ccc(NC(=O)CSc2nnc(-c3ccco3)c(-c3ccco3)n2)cc1	inactive: -11.5%
NC(CO)C(=O)NNCc1ccc(O)c(O)c1O (stereo unspecified)	inactive: 13.7%
O=C1C(Cl)=C(N2CCC(C(=O)O)CC2)C(=O)c2ccccc21	inactive: 1.75%
COc1cc(CNc2ccc(O)cc2)cc(Br)c1OCc1ccccc1	inactive: -13.9%
O=C1/C(=C/c2ccco2)Oc2c1ccc(O)c2CN1CCCCC1	active: 37.6%
CN(C)/C=C1/Oc2c(ccc3ccccc23)C1=O	inactive: -16.7%
COc1ccc(-c2ccc(C(c3c(C)[nH][nH]c3=O)c3c(C)[nH][nH]c3=O)o2)c([N+](=O)[O-])c1	inactive: 1.45%

SMILES	inhibition
Cc1oc2c(c(C)cc3oc(=O)c(CC(=O)NCC(=O)NCC(=O)NCC(C)O)c(C)c32)c1C (stereo unspecified)	active: 47.8%
COc1cccc(CNc2cccc3cccnc23)c1O	inactive: -9.2%
Cc1ccccc1C(=O)Nc1nnc(CC(=O)N/N=C/c2cn(Cc3ccccc3)c3ccccc23)s1	inactive: 3.35%
CC(C)NC(=O)N1CCC(n2nccc2NC(=O)CCOc2ccccc2)CC1	inactive: -7.8%
Fc1ccc(NC(=S)Nc2cccc3ccccc23)cc1	inactive: 2.35%
Cc1cccc(N(C)C(=O)c2cc3c(=O)[nH]c4ccc(C)cc4c3s2)c1	inactive: -2.9%
Oc1ccc2ccccc2c1C=NCc1ccccc1	inactive: 21.1%
CCOC(=O)c1ccc(N2C(=O)c3n[nH]c(-c4ccco4)c3C2c2ccc([N+](=O)[O-])cc2)cc1 (stereo unspecified)	inactive: 2.65%
CN1C(=O)N(C)c2ccc(C=O)c3cccc1c23	inactive: 7.55%
O=C1C=C(O)c2cccc(O)c2C1=O	inactive: -10.9%
Oc1ccc(NCc2ccccc2OCc2ccccc2F)cc1	inactive: -9.2%
COc1ccccc1/C=C/CN1CCN(c2ccccc2)CC1	inactive: 12.9%
Cc1occc1C(=O)N1CCN(c2ccccc2)CC1	inactive: 0.55%
S=c1[nH]nc(-c2ccco2)n1/N=C/C=C/c1ccco1	inactive: -3.85%
O=C(N/N=C/c1ccc([N+](=O)[O-])o1)c1cn2ccc3ccccc3c2n1	inactive: 0%
COc1cc2c(C#N)c(N3CCN(c4ccccc4OC)CC3)nc(N)c2c(N)n1	inactive: 16.6%
Cc1ccc(NC(=S)Nc2cccc3ccccc23)cc1	inactive: -5.1%
C=CCN(CC=C)C(=S)Nc1ccc2nsnc2c1	inactive: 17%
Cc1oc2c(c(C)cc3oc(=O)c(CC(=O)N[C@@H](C)C(=O)O)c(C)c32)c1C	active: 53.8%
CCN(CC)c1ccc(NC(=O)CSc2nc(C3CC3)nc3ccccc23)cc1C	inactive: 3.8%
CC1OC(Nc2cccc3ccccc23)C(O)C(O)C1O (stereo unspecified)	inactive: 20.2%

SMILES	inhibition
Cc1[nH]n(-c2ccccc2)c(=O)c1C(c1ccc(C(=O)O)cc1)c1c(C)[nH]n(-c2ccccc2)c1=O	inactive: -3.6%
CCOC(=O)N1CCN(C(=O)c2cccn3c(=O)c4cc(Br)ccc4nc23)CC1	active: 49.9%
C=CCC(Nc1ccccc1)C12C=CC(O1)C(C(=O)OC)=C2C(=O)OC (stereo unspecified)	inactive: -5.2%
CC(=O)Oc1ccc2c(C)c(CC(C)O)c(=O)oc2c1 (stereo unspecified)	active: 42.2%
Oc1ccc(NC(=S)Nc2ccc(O)cc2)cc1	inactive: 19.6%
O=C(N/N=C\c1cn[nH]c1-c1ccc(Cl)cc1)c1cccs1	inactive: 6.85%
Oc1ccc(C=Nc2cccc3ncccc23)c(O)c1	inactive: 0.25%
COC(=O)c1ccccc1-c1ccc(C(c2c(C)[nH][nH]c2=O)c2c(C)[nH][nH]c2=O)o1	inactive: -4%
Cc1cc2c(N)cccc2nn1	inactive: -4.5%
N#C/C(=C/c1ccc(-c2ccccc2)o1)c1nc(-c2cccs2)cs1	inactive: 19.3%
CN(C)c1ccc(/C=N/Nc2cc(N3CCOCC3)nc(N3CCOCC3)n2)cc1	inactive: -27.3%
Oc1ccc(NCc2ccc(OCc3ccccc3)cc2)cc1	inactive: -0.1%
O=C(CNc1cccc2ccccc12)N/N=C/c1ccc(OC(=O)/C=C/c2ccco2)cc1	inactive: -0.3%
S=c1[nH]nc(-c2cccs2)n1/N=C/c1cn(-c2ccccc2)nc1-c1ccc(Cl)cc1	inactive: -0.3%
Cc1cc2c(NC(=O)Nc3ccc(F)cc3)cccc2nn1	inactive: -6.2%
COc1ccc2ccc3c(c2c1)N=C[C@]1(O3)N(C)c2ccccc2C1(C)C	inactive: -2.25%
O=C(N/N=C/c1cc(Cl)cc([N+](=O)[O-])c1O)c1ccccc1NS(=O)(=O)c1cccs1	active: 39.8%
CC(=O)OCCNc1cc(SCc2ccco2)c2nonc2c1[N+](=O)[O-]	inactive: -1.55%
N#Cc1c(-c2ccccc2)nc(SCC(=O)N2c3ccccc3Sc3ccccc32)[nH]c1=O	inactive: 15.3%
